Publication PMC12136788
The list shows a part of the results.

T1: UNK ZnF1-3 (human, UniProt Q9C0B0 31-174)
T1 sequence: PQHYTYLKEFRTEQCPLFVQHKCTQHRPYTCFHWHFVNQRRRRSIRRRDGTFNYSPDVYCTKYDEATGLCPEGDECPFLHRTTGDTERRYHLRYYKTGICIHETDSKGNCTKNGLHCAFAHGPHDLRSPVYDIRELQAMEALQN

B1: chrX:77158196:77158197:+_ENSG00000131174_ENST00000481445|hu_mus|motif|central (ssRNA)
RNA: GGGAGUUCUACAGUCCGACGAUCUCCAAUUUGUGUGGCUGUAUAUGUCCAUGUAGAAACACAGAAGAUGGCUCCACCUGCGGAUAUAGCAUUCCCAUAUUUGUCAUGGAAACUAGGUGCCCUCUUCUGGUGGCUCUGCCUUGCCAACAGAGGAUUGAGCAUCA
B2: chr1:109605286:109605287:-_ENSG00000197780_ENST00000461096|hu_mus|hu_hu_hu_mus_True|18_108 (ssRNA)
RNA: GGGAGUUCUACAGUCCGACGAUCAAGAACAAUAACAACAUUCAGUAACCUCUUUAAAUGCAAUUAUCCUUAUUAUAAGCUAAGCAGAAUAAUAAUUUAAUACCGUAAGUGAACUACCACAAAACCUUGAACCGCGAAAAUGGUCAACAGAGGAUUGAGCAUCA
B3: 61446480_61446600_460_CDS_ENSG00000126814_ENST00000261249|human|control|control (ssRNA)
RNA: GGGAGUUCUACAGUCCGACGAUCUGCUUCCAAAAGCAUCUGUGUCAGGGAUGUCCAAGCUACUGGAAUCAACGAUUUUGAUUCAGUUAUGCUAUGGCUUUCCAGUUUCAGAAAUCUUCCUGAGAAUCCAAAUGGCCUCCAUAACAACAGAGGAUUGAGCAUCA
B4: 121508962_121514323_1241_CDS_ENSG00000173226_ENST00000310864|human|control|control (ssRNA)
RNA: GGGAGUUCUACAGUCCGACGAUCAAGUCUCAUGGCUCUCUGUCUUUGAAGUUGCAAUUGUAAUUUGAGGUCCUCUUCUUCCUUCUGCCUAUUUAUCUCCAGCAACAUCUUUGAUCGUUUGGAUCUGAAACUCCUCUGCAAAGCCAACAGAGGAUUGAGCAUCA
B5: chr3:71021771:71021772:-_ENSG00000114861_ENST00000475937|hu_hu|FALSE|FALSE (ssRNA)
RNA: GGGAGUUCUACAGUCCGACGAUCCACUGUCCAUACUGCCCCUUUAACGUUUUCUACUCGCACAAAACACUUGUGAAGACUAAGAUUAUGACGCACUGCAUUCUUCCACGUGGCCGCGUUGCGUCGGAAGUAAGCAAACAUUCGCAACAGAGGAUUGAGCAUCA
B6: 4693242_4693362_2871_3pUTR_ENSMUSG00000066324_ENSMUST00000084949|mouse|control|control (ssRNA)
RNA: GGGAGUUCUACAGUCCGACGAUCCUAUUAAAUUAAUACCAAGUUUCCAAACACCAAAACUGAAUUUUCAUCACACAAAGGCCAAUUUAGUGCCGUUACAUACUGUAACAUACUGUUACAUACUGUUAAGUACGGGGAAAAGCACAACAGAGGAUUGAGCAUCA
B7: 32695338_32696170_6644_CDS_ENSG00000115760_ENST00000421745|human|control|control (ssRNA)
RNA: GGGAGUUCUACAGUCCGACGAUCUGCUGCUUCAUCUUCAACAGUUGCCACAUAAUCCAGCAACCUGGACACCAGCAUAACAACCCAACUGAUCAUGGGAAUAUCUAGUACUCCUUCUGUCCUCCUAUGCAUGGGUAACUGUGGCAACAGAGGAUUGAGCAUCA
B8: 48778067_48784991_354_3pUTR_ENSG00000154945_ENST00000285243|human|control|control (ssRNA)
RNA: GGGAGUUCUACAGUCCGACGAUCUAAACAAGUCCAGCCGUUGACCUCAUUUUGGGAGUUCACAUCCACCCCGCUCUCCACCAGUUUCUGCACCUCCCGAAUGUCCCCUAAGGCCGCGGCCUCCCGCAGCCUCUCCUGCUGCUCCAACAGAGGAUUGAGCAUCA
B9: chr8:28048094:28048095:+_ENSG00000134014_ENST00000521015|hu_hu|FALSE|FALSE (ssRNA)
RNA: GGGAGUUCUACAGUCCGACGAUCUUGCGCCACUGCACUCCAGCCUGGGUGACACAGCGAGACUUUCUCAGAAAAAAAAAAAAAAUUGCAAGUAAUGGCUUCUGUGGAAGCAAAUCUUGAUUUAGGGGCACACAACCUGAGACUCAACAGAGGAUUGAGCAUCA
B10: chr1:109605286:109605287:-_ENSG00000197780_ENST00000461096|hu_mus|hu_hu_hu_mus_True|8_108 (ssRNA)
RNA: GGGAGUUCUACAGUCCGACGAUCAAGAACAAUAACAACAUUCAGUAACCUCUUUAAAUGCAAUUAUCCUUAUUAUAAGCUAAGCAGAAUAAUAAUUUAAUACCGUAAGUGAACUACACACAAAGCCGUGUAUUCAGAAAUGGUCAACAGAGGAUUGAGCAUCA
B11: chr18:12984129:12984130:+_ENSG00000085415_ENST00000262124|hu_hu|FALSE|FALSE (ssRNA)
RNA: GGGAGUUCUACAGUCCGACGAUCCUUUCUGCCAGCAGAAGAUCCAUUUAAUGAAUUCUGAAGACUUGGAAUAGUUGAACCUAGGGAAGGAUUUGAGGUUCCCUGCUGAGAACUCCCAUUGACUGGGCUCCCAUUACCUUUCAACAACAGAGGAUUGAGCAUCA
B12: chr14:66974463:66974464:+_ENSMUSG00000022044_ENSMUST00000074523|mus_hu|mus_mus_mus_hu_False|8_18 (ssRNA)
RNA: GGGAGUUCUACAGUCCGACGAUCUUGUAGGACGACUUAUUCAGGGGAUCGGCCAGGAAGCAGGAGCAGAACAAGGACACCAGCGGGAGCUCCUUCAUCUUCUCUUUGUAGGCAGCAAGAGUCAUGUUGGCUGGAAUUGGUGGCCAACAGAGGAUUGAGCAUCA
B13: chr3:9412954:9412955:+_ENSG00000134077_ENST00000452837|hu_mus|hu_hu_hu_mus_False|18_58 (ssRNA)
RNA: GGGAGUUCUACAGUCCGACGAUCGGUUGAUAUCUCUUCUUUGAUGGCUGGAUUUUCAUAAUAGUCCAAGAUAUGUGAAUCUAAAGCGCUGCUGGCAUGCUUUUUCUUACCAUCUUUCUGAUCGAUUUUGUCUCCUUGUCCACACAACAGAGGAUUGAGCAUCA
B14: chr3:101264221:101264222:+_ENSMUSG00000042035_ENSMUST00000043983|mus_mus|FALSE|FALSE (ssRNA)
RNA: GGGAGUUCUACAGUCCGACGAUCAGAUUGGCGAGUAGAUGCGGCACCUGGAGCUACGCACUAAGUUACCAAAACCAAAAACUAGGAACCUAGGAUGUUGGCAUCAUGACACCUGGGUGUGAUCAGCUAACCAGGGCUGCCGCCCAACAGAGGAUUGAGCAUCA
B15: chr4:95585729:95585730:+_ENSG00000163110_ENST00000317968|hu_hu|FALSE|FALSE (ssRNA)
RNA: GGGAGUUCUACAGUCCGACGAUCGAUUACAGGCGUGAGCCACCGCGCUCAGCCUACAAGCAAUUUUUUAAAAACUGACACCUAUUACUGAUAAAAUUCUCUGUUUAAAAUCCUAUUUACUAUUUUAAAGAUAAGUAUUAGUUUCAACAGAGGAUUGAGCAUCA
B16: chr11:23185130:23185131:+_ENSMUSG00000020290_ENSMUST00000020538|mus_mus|motif|central (ssRNA)
RNA: GGGAGUUCUACAGUCCGACGAUCGAACGGCAUUACUUCUCCAACUUGAACCUGAACAAAAUGCCUACGGCAUUUUUGAGCGGUUUUAAUAAAUGUGUCACAAGCCAUAUCCUGGACUCCAUCAUGGGUCUCAUGCAUGAAUUCCAACAGAGGAUUGAGCAUCA
B17: chr16:94690093:94690094:+_ENSMUSG00000040785_ENSMUST00000117648|mus_hu|mus_mus_mus_hu_True|8_18 (ssRNA)
RNA: GGGAGUUCUACAGUCCGACGAUCGGGCUGGGAUGACGGACACACAGCCUCGAUUCCAGGGGGAAAAAGUCUUAGUCGAUACUAAUUAAAAAGUGUUAAUGAUUUUUGAAAAUCAGAUGUAGAUUAAUUGAAUCAUAAAGCAAACAACAGAGGAUUGAGCAUCA
B18: chr2:135883765:135883766:+_ENSG00000115839_ENST00000442034|hu_hu|FALSE|FALSE (ssRNA)
RNA: GGGAGUUCUACAGUCCGACGAUCAGAAUAAACAUCAUUAUCCACAAUGAUCCCUUCGGUCAGAUGAGGCCAUGUAGUAGCUAAAUGGAGUUCACUAAUAGGAUCUUCGCAGGCACCAAAUGGUAACUUGCCAAACUCCAAGCCCAACAGAGGAUUGAGCAUCA
B19: chr7:149068622:149068623:-_ENSMUSG00000025139_ENSMUST00000001950|mus_hu|mus_mus_mus_hu_False|38_38 (ssRNA)
RNA: GGGAGUUCUACAGUCCGACGAUCGUGAGGCCUCUGAGUGUGGCUUGUGGUCUGUCCUGGGUUAGAGUUGUUAAUAUCACGGAACAUACCAUCUAGAGAGGUUCUGCCCCGCCUGACACCUUCAUUCCCAAUGGAGAAGAAAUCCAACAGAGGAUUGAGCAUCA
B20: chr2:42509997:42509998:+_ENSG00000143924_ENST00000318522|hu_mus|hu_hu_hu_mus_True|48_48 (ssRNA)
RNA: GGGAGUUCUACAGUCCGACGAUCUCGCUGAGUCCUCUCCUCAUAAUUAAACAGGACUACCACUGAGGCGAUAAAAUAAACUAUCUCCCCGGUCGGAAGCAGGUAUACAUUCGCUCUACAGUCCUUUCCUCGAUAACCGUAUACCAACAGAGGAUUGAGCAUCA
B21: chr19:38862671:38862672:-_ENSMUSG00000024999_ENSMUST00000025963|mus_hu|FALSE|FALSE (ssRNA)
RNA: GGGAGUUCUACAGUCCGACGAUCUAUAAUCUAGUCACUGAAACACGCAUUUCUUAGGCCACUCCUAGAAUAUGGGAAUAGCUGUUACAUAAAAUACUGUUUUAUAAUUAUAUUAAUAAGAAAAAGCAUUUUACCUGUUCCAAGCAACAGAGGAUUGAGCAUCA
B22: chr7:141443734:141443735:+_ENSG00000106028_ENST00000265304|hu_hu|FALSE|FALSE (ssRNA)
RNA: GGGAGUUCUACAGUCCGACGAUCCCCCUUUUUCACAUAUUGAUAUGCCACGUCUCUGAGGCCUGGCCGGAAUACUGAUAUUCUGUGCCAUGUUGUCUUUUGACUGACAUCACCCAGUUGGUAAACUUCACUAUCCCCUGAUCGCAACAGAGGAUUGAGCAUCA

Target: T1, UNK ZnF1-3
Test: nsRBNS (natural sequence RNA bind-n-seq); RBNS binding buffer (assumed for nsRBNS): 25 mM Tris pH 7.5, 150 mM KCl, 3 mM MgCl2, 0.01% Triton X-100, 500 ug/ml BSA, 20 U/ml SUPERase-In, 4 C; UNK is unkempt and MSI1 is Musashi-1; names of the RNAs are library labels; protein concentration not given here; high values mean tight binding

Row | Binder | binding signal [enrichment R]
1 | B1 | 0.677
2 | B2 | 0.954
3 | B3 | 0.693
4 | B4 | 0.704
5 | B5 | 0.965
6 | B6 | 0.869
7 | B7 | 0.686
8 | B8 | 0.967
9 | B9 | 1.62
10 | B10 | 0.741
11 | B11 | 0.75
12 | B12 | 2.2
13 | B13 | 0.388
14 | B14 | 1.18
15 | B15 | 0.896
16 | B16 | 0.919
17 | B17 | 0.759
18 | B18 | 1.08
19 | B19 | 0.779
20 | B20 | 1.19
21 | B21 | 1.02
22 | B22 | 0.7
